Measured values from article PMC6114900, “Molecular basis for CesT recognition of type III secretion effectors in enteropathogenic Escherichia coli” (PLoS Pathogens, 2018).
No constants are given. Whether binding was seen depends on the method and setting. For part of these data: Binding seen in cells or lysates may run through a third protein. Some binding calls cover weakened binding; strength is not graded here.

By UniProt entry, the sequences of proteins in these tests, tags left out. Where a name states a change or a piece, a line headed by the entry shows the natural chain unless it says otherwise. Chains listed by the source or under a name are the forms on record and can include a tag or linker. Residues count along the entry.
UniProt B7UM99: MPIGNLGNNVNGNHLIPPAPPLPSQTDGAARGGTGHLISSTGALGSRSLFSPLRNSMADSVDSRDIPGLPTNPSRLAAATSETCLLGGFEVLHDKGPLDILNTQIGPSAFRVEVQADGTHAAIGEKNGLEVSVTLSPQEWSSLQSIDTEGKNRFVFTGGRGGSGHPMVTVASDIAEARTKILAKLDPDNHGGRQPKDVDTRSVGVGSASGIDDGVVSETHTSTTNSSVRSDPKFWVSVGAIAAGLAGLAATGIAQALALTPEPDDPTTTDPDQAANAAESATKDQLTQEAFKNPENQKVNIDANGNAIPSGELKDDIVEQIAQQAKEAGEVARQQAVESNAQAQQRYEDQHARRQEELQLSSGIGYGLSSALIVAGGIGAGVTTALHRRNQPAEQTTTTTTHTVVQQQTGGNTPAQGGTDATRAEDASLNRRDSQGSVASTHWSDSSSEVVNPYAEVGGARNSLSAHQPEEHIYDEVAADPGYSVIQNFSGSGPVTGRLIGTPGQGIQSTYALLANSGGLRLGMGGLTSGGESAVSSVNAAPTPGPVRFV
T18 fused to Tir^23-550 (enteropathogenic Escherichia coli (EPEC)): residues 23-550 of B7UM99
His6-Tir^23-80 (enteropathogenic Escherichia coli (EPEC)): residues 23-80 of B7UM99
His6-Tir^32-80 (enteropathogenic Escherichia coli (EPEC)): residues 32-80 of B7UM99
His6-Tir^32-73 (enteropathogenic Escherichia coli (EPEC)): residues 32-73 of B7UM99
His6-Tir^35-77 (enteropathogenic Escherichia coli (EPEC)): residues 35-77 of B7UM99
His6-Tir^37-80 (enteropathogenic Escherichia coli (EPEC)): residues 37-80 of B7UM99
His6-Tir^37-73 (enteropathogenic Escherichia coli (EPEC)): residues 37-73 of B7UM99
T18 fused to Tir^81-550 (enteropathogenic Escherichia coli (EPEC)): residues 81-550 of B7UM99
T18 fused to Tir^490-550 (enteropathogenic Escherichia coli (EPEC)): residues 490-550 of B7UM99
UniProt P21244: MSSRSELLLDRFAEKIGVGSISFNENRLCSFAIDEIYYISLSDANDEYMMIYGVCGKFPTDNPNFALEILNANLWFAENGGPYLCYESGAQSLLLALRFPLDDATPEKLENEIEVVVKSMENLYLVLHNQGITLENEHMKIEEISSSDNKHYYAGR

Legend:
[1] = biological target: T18 fused to Tir^23-80 (enteropathogenic Escherichia coli (EPEC)) (UniProt B7UM99); test: two-hybrid
[2] = biological target: T18 fused to Tir^490-550 (enteropathogenic Escherichia coli (EPEC)) (UniProt B7UM99); test: two-hybrid
[3] = biological target: T18 fused to Tir^23-550 (enteropathogenic Escherichia coli (EPEC)) (UniProt B7UM99); test: two-hybrid
[4] = biological target: T18 fused to Tir^81-550 (enteropathogenic Escherichia coli (EPEC)) (UniProt B7UM99); test: two-hybrid
[5] = biological target: His6-Tir^23-550 (enteropathogenic Escherichia coli (EPEC)) (UniProt B7UM99); test: pull-down
[6] = biological target: His6-Tir^490-550 (enteropathogenic Escherichia coli (EPEC)) (UniProt B7UM99); test: pull-down
[7] = biological target: His6-Tir^23-80 (enteropathogenic Escherichia coli (EPEC)) (UniProt B7UM99); test: pull-down
[8] = biological target: His6-Tir^35-77 (enteropathogenic Escherichia coli (EPEC)) (UniProt B7UM99); test: pull-down
[9] = biological target: His6-Tir^32-80 (enteropathogenic Escherichia coli (EPEC)) (UniProt B7UM99); test: pull-down
[10] = biological target: His6-Tir^37-73 (enteropathogenic Escherichia coli (EPEC)) (UniProt B7UM99); test: pull-down
[11] = biological target: His6-Tir^32-73 (enteropathogenic Escherichia coli (EPEC)) (UniProt B7UM99); test: pull-down
[12] = biological target: His6-Tir^81-550 (enteropathogenic Escherichia coli (EPEC)) (UniProt B7UM99); test: pull-down
[13] = biological target: His6-Tir^37-80 (enteropathogenic Escherichia coli (EPEC)) (UniProt B7UM99); test: pull-down
[14] = biological target: Tir (BACTH fusions of the Tir-Tir interaction) (enteropathogenic Escherichia coli (EPEC)) (UniProt B7UM99); test: two-hybrid

Substance	binding [1]	binding [2]	binding [3]	binding [4]	binding [7]	binding [8]	binding [9]	binding [10]	binding [11]	binding [13]	also measured
CesT fused to T25 (from UniProt P21244 1-156)	binds	binds	binds	binds							
CesT-FLAG (from UniProt P21244 1-156)					binds	binds	binds	no binding	no binding	no binding	binding [5]: binds; binding [6]: binds; binding [12]: binds
CesT^138 (no tag, co-expressed and co-purified with His6-Tir peptides) (from UniProt P21244 2-138) (domain or fragment)					binds	binds			binds		
CesT^138 fused to T25 (from UniProt P21244 2-138) (domain or fragment)	binds	binds	binds	binds							
CesT^138-FLAG (from UniProt P21244 2-138) (domain or fragment)					binds	binds	binds	no binding	binds	no binding	
Tir (BACTH fusions of the Tir-Tir interaction) (from UniProt B7UM99 1-550)											binding [14]: binds
